± gives the standard deviation of the averaged measurements. Some of the results follow.
Test system: PfAP2-EXP AP2 domain (GST-tagged)
Assay: gcPBM binding intensity (ln(normalized median fluorescence intensity)); higher = stronger DNA binding
How it was run: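 DNA-binding domains from P. falciparum, fused to GST and produced in E. coli, were put on an Agilent 4 × 180k double-stranded probe array for 1 h in 1× PBS holding 1% milk, 0.2 mg/ml BSA, 0.5% salmon testes DNA and 0.03% Triton X-100. Probes were primer-extended, 36 bp long and drawn from intergenic genomic regions, with negative controls included. After Alexa488 anti-GST antibody detection and a 488 nm scan, binding intensity was set as the highest Masliner-normalised natural-log median intensity across replicate spots of either probe orientation.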

| Sequence | gcPBM binding intensity (ln) |
| --- | --- |
| ATGGACAAAAAATATATACACACGAGGAAACCAACA [CACACA_site3726] | 9.05 ± 0.53 |
| CATGCATACTACATCTGTACACATACATTATATTTA [XGTACX_site2495] | 8.9 ± 0.37 |
| TTTTGTTTTTACGAATACTTTTTTAATTTTATTTAT [TGCATGCA_negctrl_site395] | 8.41 ± 0.34 |
| TCTTGTTATTTAAATGCATGTTGATTTTAAAAAATT [TGCATGCA_site840] | 8.81 ± 0.4 |
| AATAAAAAGTAATAATAACGTATAATTTATTATACT [TGCATGCA_negctrl_site414] | 8.29 ± 0.4 |
| TATACTTTATATATTTTGTATATATATTTTTTTTAT [TGCATGCA_negctrl_site530] | 8.43 ± 0.31 |
| GTAAATTATATAACAAATAAAAATGTACATATATAT [CACACA_negctrl_site408] | 8.77 ± 0.35 |
| ATATATATAGATTGTACACACATTTATGCATATATA [CACACA_site3222] | 8.98 ± 0.23 |
| ATAACATTCTATGTTGCACACAAAGAGAAAAATTTA [CACACA_site9322] | 8.37 ± 0.43 |
| ACGCAATATTAACAAGTGCATTATAACACATAACAT | 8.74 ± 0.3 |
| TTATATATTAATAGTAGTACTATATTGAATCACCCC [XGTACX_site2868] | 9.4 ± 0.59 |
| TTATTTTTGTTTTGAAGTACAAAAAAATATATTCTT [XGTACX_site6416] | 8.23 ± 0.23 |
| AAAATTTATATAAGCACACAAATATATATTTATATC [CACACA_site3291] | 8.55 ± 0.47 |
| AGTTTATAGTGATATTGTACATATATATATATATAT [XGTACX_site572] | 10.2 ± 0.66 |
| TATTTATACTCAACTTTCTGTTATTCCAACTTTTTT [XGTACX_negctrl_site410] | 8.77 ± 0.39 |
| ACATAAGAACATATTTGTACGTATATAAATTAAATA [XGTACX_site6127] | 8.54 ± 0.42 |
| ACAACAAAAATAAGCACACACAAATATACATACATA [CACACA_site7664] | 8.79 ± 0.26 |
| TTTTAAATCTTATATTCCCCACATAAATAGCTCTCT [GTGCAC_negctrl_site665] | 8.43 ± 0.35 |
| ATATATATATATGTGTGTACATATATGTGGATGGAT [XGTACX_site6240] | 10 ± 0.43 |

| Sequence | gcPBM binding intensity (ln) |
| --- | --- |
| AGGTAGAAAAAAGACACACACATTATGTATATATAT [CACACA_site377] | 8.88 ± 0.22 |
| TTATAGGATCAAGCGCGTACATATCTTTATAAAAGA [XGTACX_site5775] | 8.72 ± 0.53 |
| GCAAATATGTTGATATGTACATATATATATATATAT [XGTACX_site445] | 10.2 ± 0.45 |
| TATTTCTTTATTGGCACACATTTTTTCAATTATATA [CACACA_site4975] | 8.84 ± 0.32 |
| ATATACAAATATATATATATATATATATATATATAT [CACACA_negctrl_site886] | 10.1 ± 0.58 |
| AAAAAATATACATATACACACATATGTATATATAAT [CACACA_site8676] | 8.16 ± 0.3 |
| ATTATTTTAATAAAACGTACAAAATATAAATCAAAA [XGTACX_site3770] | 8.73 ± 0.45 |
| TTTTTTCATATAAATACATGCACACAAAAATATCAA [TGCATGCA_site602] | 9.08 ± 0.26 |
| AATAACAAAATATTAACACACATAACATATTATAAA [CACACA_site2803] | 8.48 ± 0.34 |
| TAATGTTTTTTTTGTTTACCAAAAATAATACATTAT [CACACA_negctrl_site203] | 8.09 ± 0.47 |
| AATATAAAAATATAAAAACACACGTAAAAAAATTTA [CACACA_site3399] | 8.77 ± 0.65 |
| TATATTCTTTTAAACAGTACACACACACATATATAT [XGTACX_site1701] | 8.96 ± 0.44 |
| AAAAAAATTAAAAATAAAGAAAAAAAAAAAAAAAAA [GTGCAC_negctrl_site401] | 8.04 ± 0.66 |
| GAATATTTATCATGGGGTACCTTAAAAAAGGGAAAA [XGTACX_site298] | 8.55 ± 0.49 |
| TTTTATTTATAATATATACACACTAACATTATTTAT [CACACA_site1284] | 8.27 ± 0.34 |
| ATATCTTAAATTATTTGTACATATATATATATATAT [XGTACX_site8034] | 10.3 ± 0.27 |
| AATATAAACCCAAACACACACATATATATATATATA [CACACA_site268] | 9.98 ± 0.41 |
| TTTTTTTTTTTGAGGAGGACACAAAAATATGCTACC [XGTACX_site756] | 8.53 ± 0.26 |
| TTAACGCTTATTTTTTGTACTTATTTTATTTTAAAT [XGTACX_site3977] | 8.85 ± 0.37 |

| Sequence | gcPBM binding intensity (ln) |
| --- | --- |
| ACTCTATAATAAAATACACACAAGACTATCTAATAT [CACACA_site1796] | 8.51 ± 0.45 |
| CAACATTAATATAAAGCACACATATATATAATATAT [CACACA_site8064] | 8.51 ± 0.31 |
| ATATATACATATAATTGTACTTGTGTTGTTTTTCTT [XGTACX_site1870] | 8.78 ± 0.47 |
| TGTAGATATTATATATGTACGCATATGAAATATATA [XGTACX_site1586] | 8.47 ± 0.12 |
| GTAATATCAATATAAAGTACACACTATAGTATGTAT [XGTACX_site4714] | 8.4 ± 0.36 |
| TTCAAAATATATATTTGTACATATAGGATCTTTTTC [XGTACX_site4500] | 8.41 ± 0.45 |
| AAAATATATAATATAACACACATATATTCTATATGG [CACACA_site4044] | 8.14 ± 0.27 |
| TAATTATATAAATATTGTACAAAAAAAATATATATA [XGTACX_site3137] | 8.62 ± 0.42 |
| TCTTTTTTTTTTTTTTTTTTTTTTTTTTTTTTTTTT [GTGCAC_negctrl_site18] | 9.3 ± 0.18 |
| TTTTCTTTTTAAATTACACACACATATATATATGTA [CACACA_site9172] | 8.54 ± 0.4 |
| ATAAAACCAACATAGAGTACAGATCGACTATGTTTC [XGTACX_site4329] | 8.72 ± 0.46 |
| ATTTTAATGACATATACACACAAAGGTTCATAACAA [CACACA_site5664] | 8.53 ± 0.4 |
| ACTATTTAAAAATATGGTACACGAAATTCAAGAGAA [XGTACX_site5903] | 8.77 ± 0.42 |
| ATATATATATATGTATGTATATATATATGTTTGATT [XGTACX_negctrl_site62] | 10.16 ± 0.064 |
| ATGAATTAACCTAATCGTACAATAAATATTATTATA [XGTACX_site596] | 8.3 ± 0.4 |
| TTTTTTATTTTGTTGAAGCAATGAAAATGAATGAAA [TGCATGCA_negctrl_site495] | 8.52 ± 0.38 |
| ATATGTTTAAAAATATGTACGTATTATATATTCTAT [XGTACX_site1358] | 8.59 ± 0.29 |
| AAGTTTTATATTTATTAAATTTTTTTTTTTCCTTTT [XGTACX_negctrl_site184] | 8.1 ± 0.4 |

Reference: the supplement of paper PMC11417369
